Assay results reported in the RNAGym collection of RNA variant scans (doi:10.7554/elife.90254).
Read counts are not given, so values of variants with three or more changes are uncertain.

B1: LINE1-mini (parent)
chain: GGCAGAGCUCAACACAGCGUGGCAAAGUGGCUGUGGCUAGACUGCC

Variants of: B1
Experiment: self-cleavage, relative activity (ratio to wild type); higher = more cleavage; in vitro, sequencing; the parent is a self-cleaving ribozyme
Variant A12U G21A U28C A41G has a self-cleavage of 0.03. Variant G5A C31U U34C U38G has a self-cleavage of 0.02. For C18U G19A G22A A25G G35C C42A, the self-cleavage was 0.01. G7U C10U A16G G22A gave a self-cleavage of 0.01. A4G G29A U34G gave a self-cleavage of 0.2. In the case of G2U C8U G35U, the self-cleavage is reported as 0.12. G17A U20C G33U G44C gave a self-cleavage of 0.03. In the case of G2A C10U A26G G27A G40U, the self-cleavage is reported as 0.07. Work on C18A U20C G22U G44U yielded a self-cleavage of 0.06. With C8G G21C C23U C46U the self-cleavage was 0.02. Work on G1U C13A A41C G44U yielded a self-cleavage of 0.01. In the case of G2C A14G U34C, the self-cleavage is reported as 0.02. Work on C8A A11C G35A yielded a self-cleavage of 0.01. For A11C G17U G22U G33U A41U C42A, the self-cleavage was 0.02. Work on C3U U9A G22A C42U yielded a self-cleavage of 0.43. With C18U G19U A41C G44U the self-cleavage was 0.02. Work on G5A U9G C37U yielded a self-cleavage of 0.59. In the case of G2U A41C C45U, the self-cleavage is reported as 0.01. With C18A A25C U38A G40A the self-cleavage was 0.03. With A4G C13G U20C the self-cleavage was 0.44. Work on U9A C15A U34G A41U C46G yielded a self-cleavage of 0.1. With C15G G22C G29A U38C C46A the self-cleavage was 0.01. Variant C10G U20G G40U A41G has a self-cleavage of 0.01. In the case of G1C C3G A14U G17U A24G A41U, the self-cleavage is reported as 0.03. C15U G17A U28A C45G showed a self-cleavage of 0.04. For G7A A24U A25C U32G U38A, the self-cleavage was 0.03. With C3G G19U U34G the self-cleavage was 0.02. Variant G5U C18A C23U G40U C45U has a self-cleavage of 0.03. G5A U34G G40U gave a self-cleavage of 0.08. Variant G1U C18G G36A U43C has a self-cleavage of 0.05. In the case of C8U G30A C37A, the self-cleavage is reported as 0.06. For A11U U32G A39C C42U, the self-cleavage was 0.03. Variant G1U U28A C31G G40U has a self-cleavage of 0.05. Work on C18G A39G C42A yielded a self-cleavage of 0.02. G7A A12C C15G U38A C42U gave a self-cleavage of 0.04. C13A U32G G36U showed a self-cleavage of 0.04. G1A C10A G27C U38A showed a self-cleavage of 1.18. C15A G27C U32A showed a self-cleavage of 0.08. With G1C C3U C45A the self-cleavage was 0.14. In the case of G1U C10U C23U G35U, the self-cleavage is reported as 0.03. In the case of U20G G22C U28C, the self-cleavage is reported as 0.35. In the case of C10U C15U G35U, the self-cleavage is reported as 0.03. For G2C G40A U43G, the self-cleavage was 0.02. Work on G5U U9A G17C G29U G30C U34C yielded a self-cleavage of 0.07. In the case of C8G C10A A11U, the self-cleavage is reported as 0.02. For G7C G21C A24G, the self-cleavage was 0.07. Work on C3A G17C G22U U28C yielded a self-cleavage of 0.51. G5U C10U G33U gave a self-cleavage of 0.05. A24C G33U U38A C42G showed a self-cleavage of 0.04. Variant A4U G35A C45A has a self-cleavage of 0.06. With C8G A25G C31A the self-cleavage was 0.04. With C13G C15U U32C A39U the self-cleavage was 0.05. For G2A G29U G36C, the self-cleavage was 0.12. Variant U9G G19U C23U has a self-cleavage of 0.12. A4G G17U U20A G29A G35U gave a self-cleavage of 0.73. Variant C3A G17U G35C has a self-cleavage of 0.12. C18A G19U C31A U32G showed a self-cleavage of 0.05. G5U G30U G40C showed a self-cleavage of 0.03. In the case of A6C G7U C10U, the self-cleavage is reported as 0.05. C3U U9C G19A C23A U32G G36C showed a self-cleavage of 0.01. With G2C G7U C13A the self-cleavage was 0.14. A14U A25C U28G showed a self-cleavage of 0.46. With G33C U34G U43C the self-cleavage was 0.03. For U20C G21A C23U, the self-cleavage was 0.46. In the case of A26U G36U C37A, the self-cleavage is reported as 0.07. A12G G22U G27A G40C C46U gave a self-cleavage of 0.04. Work on G2C A6C A12G A41C yielded a self-cleavage of 0.02. C13A A16U U38C gave a self-cleavage of 0.69. In the case of U9C A14U A25C G29A C31U, the self-cleavage is reported as 0.03. Variant G5U A14G C37U C45U has a self-cleavage of 0.03. In the case of A12G A16U G29U, the self-cleavage is reported as 0.03. For G1C G29C G33C G35U, the self-cleavage was 0.01. Variant G1C A6C C15A C23A has a self-cleavage of 0.02. In the case of G5C C8G C10U C31G C42G, the self-cleavage is reported as 0.04. In the case of A6G C23A G44U, the self-cleavage is reported as 0.12. C3G C10G U20A A25G G36C A41G C45A gave a self-cleavage of 0. For G1A A4C A25U U28G, the self-cleavage was 0.03. A24G G36C U43C gave a self-cleavage of 0.04. Variant A11G C23G U38C has a self-cleavage of 0.02. A4C G17C C18A G29A showed a self-cleavage of 0.03. C3G G27A U32A A39U showed a self-cleavage of 0.05. In the case of C13G G17A C23U G35C, the self-cleavage is reported as 0.33. In the case of U20G G21U A24C G30U G40U, the self-cleavage is reported as 0.08. C10A C31G U38A G44A showed a self-cleavage of 0.02. For G7C G22A C42G, the self-cleavage was 0.03. Work on A14U G21C G27A yielded a self-cleavage of 0.56. For A6U G19A G40A, the self-cleavage was 0.08. In the case of G21U U34G C46A, the self-cleavage is reported as 0.36. Variant G7C U28A U34A G36U G40C U43C has a self-cleavage of 0.02. Work on U9C A26U G35A yielded a self-cleavage of 0.03. Variant A26G C31G G36A has a self-cleavage of 0.04. With C13G C15A U20C A39C the self-cleavage was 0.02. For G1A G17U C23A, the self-cleavage was 0.95. With C18U G22C C46G the self-cleavage was 0.2. Work on C8A C10G C13G G17A G21A yielded a self-cleavage of 0.06. G2A G7A G21A A41U gave a self-cleavage of 0.94. For A4U G17A C37A, the self-cleavage was 0.03. Variant C15A A25G U43C has a self-cleavage of 0.08. With G1A U9A C23A U28G the self-cleavage was 0.35. C3U G17C U28A A39C gave a self-cleavage of 0.01. U9C A26C G30U showed a self-cleavage of 0.02. In the case of G21C C23G A24U A25G, the self-cleavage is reported as 0.12. Work on C8A C13U C45G yielded a self-cleavage of 0.22. G19C A25C G30C C46G gave a self-cleavage of 0.1. For G2C A4G G44C, the self-cleavage was 0.27. Work on A4G A12G A26G yielded a self-cleavage of 0.02. In the case of G7A C10G C18A C31A U32C, the self-cleavage is reported as 0.02. With G17U C18G A39U C45G the self-cleavage was 0.01. Work on C13U A24U G40A G44U yielded a self-cleavage of 0.01. U9G C15U G30C U38C showed a self-cleavage of 0.01. Variant A12C C31U G33A has a self-cleavage of 0.02. For C10A A14U G21A, the self-cleavage was 0.01. For A4U G30U G44U, the self-cleavage was 0.1. Variant G2U C8A C13A G19U U38A has a self-cleavage of 0.22. With C13U G17U C31U the self-cleavage was 0.01. In the case of G17U U34A C45A, the self-cleavage is reported as 0.02. Variant C10U G19U G36A U38C A41C has a self-cleavage of 0.03. For A24U C31A G44C, the self-cleavage was 0.08. For A6G C13U C18G G35C, the self-cleavage was 0.14. Work on A12C A24C G27C U32G yielded a self-cleavage of 0.02. Work on C3A C15A G21C C42U yielded a self-cleavage of 0.22. With A4C G17A C23A the self-cleavage was 0.05. G2C A4G C23U A26U G44C showed a self-cleavage of 0.02. Work on C15A G19A G36C yielded a self-cleavage of 0.05. Work on G7A A12C U34G yielded a self-cleavage of 0.01. C3U G40U C46U showed a self-cleavage of 0.07. Work on C10G G21U G22U A25C G29A C42G yielded a self-cleavage of 0.01. Work on G21A G30A G40A yielded a self-cleavage of 0.51. Work on C10U A25U C31U G35U C37G G40A yielded a self-cleavage of 0.01. Work on A25U U32C U38A yielded a self-cleavage of 0.05. A11U A41U C45A gave a self-cleavage of 0.06. In the case of C3G U9A A14U G29U U38G, the self-cleavage is reported as 0.25. For U9G G27C G30U C31G, the self-cleavage was 0.02. C10A U38C U43A showed a self-cleavage of 0.01. Work on C3A G19U U38G yielded a self-cleavage of 0.09. For A12G C15A G21U C37U, the self-cleavage was 0.06. G2A G19A G27C C45U gave a self-cleavage of 1.91. G2U C10G C37U showed a self-cleavage of 0.02. G7U A14C A25G G27C gave a self-cleavage of 0.06. Variant A6C G17A G27U C42U has a self-cleavage of 0.37. For G2U A16C C23A U28A G40U, the self-cleavage was 0.02. Variant C15A C23G C42G has a self-cleavage of 0.01. G1A A14C A41U showed a self-cleavage of 0.01. G2A C18A G21U U32G A39U gave a self-cleavage of 0.07. C10U C23A G44A showed a self-cleavage of 0.19. With A12C A25C C37U G40U the self-cleavage was 0. Variant G1U G7U C10A G21A G29U G33A has a self-cleavage of 0.03. Work on C10U C18U U32A G40C C42A yielded a self-cleavage of 0.1. C3A G5C G36C G44A gave a self-cleavage of 0.04. Work on G19C G29U C37A yielded a self-cleavage of 0.02. Work on A11C A12U U38G yielded a self-cleavage of 0. C10G C31G G40U showed a self-cleavage of 0.01. C10U G17U U28G G29U gave a self-cleavage of 0.04. G1C A6C U28A showed a self-cleavage of 0.02. U20G G27A G35C showed a self-cleavage of 0.06. G33A G36C A41G showed a self-cleavage of 0.01. For A4C U32C C45U C46G, the self-cleavage was 0.64. Variant G21A C37U U38A has a self-cleavage of 0.22. With G22U A26U G35U C42A the self-cleavage was 0.04. Variant A24U A25C G44C has a self-cleavage of 0.39. With C15U C23U G30C A41U the self-cleavage was 0.23. C15U C18U U34C G36C gave a self-cleavage of 0.02. C10A A14C U32G U38G A41C gave a self-cleavage of 0.01. A4U C13G G35U showed a self-cleavage of 0.21. With G2U A6U A11G A26U U38G A39G the self-cleavage was 0. Variant U9A C18U G22C has a self-cleavage of 0.04. For A14G C23U C31A C45G, the self-cleavage was 0.05.
